Measured values as given in PMC4336329 (PLoS ONE, 2015).
Hit rate of the full screen: of about 310,000 compounds, about 14,000 (4.5%) showed an effect of 50% or more. Effects have a minus sign here. The list shows a part of the results.

Target: human ether-à-go-go-related gene (hERG) potassium channel (human, UniProt Q12809)
Assay: primary screen, population patch clamp on CHO cells stably expressing hERG
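Note: peak tail current of the secondary pulse compared with the same well before compound.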

Chain of human ether-à-go-go-related gene (hERG) potassium channel (Q12809 whole entry, looked up): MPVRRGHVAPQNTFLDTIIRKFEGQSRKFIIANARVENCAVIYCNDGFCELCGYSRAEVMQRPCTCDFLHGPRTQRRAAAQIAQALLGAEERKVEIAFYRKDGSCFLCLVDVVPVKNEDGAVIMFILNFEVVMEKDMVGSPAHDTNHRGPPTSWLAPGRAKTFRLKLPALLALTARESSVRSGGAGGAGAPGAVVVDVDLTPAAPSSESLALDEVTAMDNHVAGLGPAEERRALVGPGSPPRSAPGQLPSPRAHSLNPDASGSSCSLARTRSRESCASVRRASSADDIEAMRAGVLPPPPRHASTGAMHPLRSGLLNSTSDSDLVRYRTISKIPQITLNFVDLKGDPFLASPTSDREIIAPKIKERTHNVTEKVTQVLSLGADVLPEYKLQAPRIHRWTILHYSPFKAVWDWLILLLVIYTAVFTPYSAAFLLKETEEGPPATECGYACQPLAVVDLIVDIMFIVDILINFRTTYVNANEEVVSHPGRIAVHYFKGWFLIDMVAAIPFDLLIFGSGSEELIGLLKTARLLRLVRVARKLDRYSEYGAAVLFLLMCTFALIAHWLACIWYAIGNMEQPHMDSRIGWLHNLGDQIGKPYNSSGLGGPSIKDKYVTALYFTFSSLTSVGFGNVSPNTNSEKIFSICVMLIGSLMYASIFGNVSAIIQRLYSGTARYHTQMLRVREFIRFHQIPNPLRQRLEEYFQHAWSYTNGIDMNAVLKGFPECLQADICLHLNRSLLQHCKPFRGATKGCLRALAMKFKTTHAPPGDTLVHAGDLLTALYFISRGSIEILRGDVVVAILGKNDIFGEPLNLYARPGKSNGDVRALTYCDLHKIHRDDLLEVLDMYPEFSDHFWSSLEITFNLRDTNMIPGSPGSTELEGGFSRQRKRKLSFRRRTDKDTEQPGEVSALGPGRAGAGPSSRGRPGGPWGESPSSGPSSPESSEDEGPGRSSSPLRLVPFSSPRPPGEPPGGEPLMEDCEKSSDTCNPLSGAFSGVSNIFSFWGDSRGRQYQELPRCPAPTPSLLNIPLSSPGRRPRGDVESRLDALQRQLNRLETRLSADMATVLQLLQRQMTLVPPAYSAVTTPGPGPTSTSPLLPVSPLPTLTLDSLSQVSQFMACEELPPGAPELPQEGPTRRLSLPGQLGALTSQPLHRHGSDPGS

SMILES	hERG current change (%, negative = inhibition) at 10uM
CC1(C)CC(NC(=O)c2cccc(S(=O)(=O)Nc3cccc(Cl)c3)c2)CC(C)(C)N1	2.63%
COc1cc(-c2nnc3sc(-c4ccco4)nn23)cc(OC)c1OC	2.94%
CCCCOc1ccc(/C(N)=N/O)cc1	-0.207%
CCOc1ccc(NC(=O)c2c(NC(=O)CN3CCN(C)CC3)sc3c2CCC3)cc1	-72.7%
O=C(CSc1ccccc1)NC1CCCCCC1	2.02%
Cc1cc(C(=O)Nc2ccc(N3CCCC3)c(Cl)c2)ccc1[N+](=O)[O-]	14.3%
CCCCN(C(=O)CC1OC(=O)c2ccccc21)c1c(N)n(CCCC)c(=O)[nH]c1=O (stereo not shown)	6.29%
COc1cc(OC)cc(C(=O)Nn2cc(C(=O)Nc3ccccc3F)c3ccccc3c2=O)c1	-2.36%
Cc1ccc(C(=O)CN(C(=O)c2ccc(Cl)c(Cl)c2)N2C(=O)C3C4C=CC(C4)C3C2=O)cc1 (stereo not shown)	11.3%
O=C(Nc1ccnn1C1CCN(Cc2cccc(O)c2)CC1)C1CCCC1	-36.5%
O=C(COC(=O)CCc1ccc(S(=O)(=O)N2CCOCC2)cc1)NC(=O)NC1CCCCC1	3.67%
CSc1cccc(NC(=S)Nc2ccc(F)cc2)c1	6.95%
COc1ccccc1CNS(=O)(=O)c1ccc2c(c1)N(C(C)=O)CC(C)S2 (stereo not shown)	2.13%
Cn1nc(C(=O)NCc2ccccn2)c2ccccc2c1=O	-5.23%
CCOc1ccc(C(=O)NCC(=O)NCC(c2cccs2)N2CCOCC2)cc1 (stereo not shown)	4.69%
CCN(CC)C1=NC=CC(c2ccccc2)=CC1C (stereo not shown)	-55.1%
CCOC(=O)N1CCN(C(=O)c2ccc(C)c(S(=O)(=O)Nc3ccccc3)c2)CC1	5.43%
O=C(Nc1ccc(S(=O)(=O)N2CCCCC2)cc1)c1cccnc1Cl	6.43%
O=C(c1ccccc1)N1CCN(Cc2c[nH]c3ccccc23)CC1	-16.4%
O=C1CCCN1CCCNc1ncnc2sccc12	3.29%
CCOC(=O)N1CCN(CC(=O)c2ccc3c(c2)CCN3C(C)=O)CC1	8.95%
C=CCn1c(Cc2cccs2)nnc1SCC(=O)Nc1ccc(C(=O)OCC)cc1	-15.2%

SMILES	hERG current change (%, negative = inhibition) at 10uM
CSCCC(NS(=O)(=O)c1ccc(C)c(C(=O)O)c1)C(=O)O (stereo not shown)	30.3%
CCc1nccn1CCC(=O)NC1CC(C)(C)Cc2c1cnn2-c1ccc(C)cc1 (stereo not shown)	-22.1%
COC(=O)CN1C(=O)N/C(=C/c2ccc(OC)cc2)C1=O	6.05%
O=C(CN(Cc1ccccc1)S(=O)(=O)c1ccc(Cl)cc1)NCC1CCCO1 (stereo not shown)	-9.79%
CN(CC1CCN(CCc2cccc(C(F)(F)F)c2)CC1)C(=O)c1ccccc1	-68.5%
CC(=O)c1cccc(N(C(=O)c2ccccn2)C(C(=O)NC2CCCCC2)c2cccs2)c1 (stereo not shown)	-0.488%
CC(SCc1ccccc1)C(=O)NN=C1CCN(C)CC1 (stereo not shown)	1.75%
NS(=O)(=O)c1ccc(CCNC(=O)c2cc([N+](=O)[O-])ccc2N2CCCCC2)cc1	-37%
O=C(CC1SC(=Nc2ccccc2)N(CCc2ccccn2)C1=O)Nc1ccc(F)cc1 (stereo not shown)	-22.5%
O=C(C1CCCN(CCCc2ccccc2)C1)N1CCCCC1 (stereo not shown)	-38.8%
O=[N+]([O-])c1ccc(N(c2ccccc2)c2ccccc2)cc1	4.46%
Cc1ccc(OCCC(=O)NNC(=O)c2cc(C)oc2C)cc1	9.57%
O=C(NC1C=CS(=O)(=O)C1)c1sc2ccccc2c1Cl (stereo not shown)	-49.2%
CN(C)C(=O)c1ccc(NC(=O)COC(=O)Cn2cc(C(F)(F)F)ccc2=O)cc1	-16.8%
COc1cccc(CNC(=O)Cn2ncn3cccc3c2=O)c1OC	2.53%
COc1ccc(-c2csc(N(CCCN(C)C)C(=O)c3ccc(Br)cc3)n2)cc1.O=C(O)C(=O)O	-44%
Cn1c(=O)c2c(n3cnnc13)-c1ccccc1CC21CCCC1	-15.6%
Cc1c(Cl)c([N+](=O)[O-])nn1CC(=O)NC1CCCCC1	0.666%
O=C(Nc1ccc(S(=O)(=O)N2CCCCCC2)cc1)c1ccc(Br)o1	-14.5%
CSCCC(NS(=O)(=O)c1ccc(Cl)cc1)C(=O)OCC(=O)NC1CCCCC1 (stereo not shown)	-18.2%
CCc1cccc(CC)c1NC(=O)CN1CCN(S(=O)(=O)c2ccccc2)CC1	6.21%
OC(CNCc1ccccc1)(c1ccccc1)c1ccccc1	-9.7%

SMILES	hERG current change (%, negative = inhibition) at 10uM
CCCCOc1ccc(N2C(=O)CC(NCCc3ccc(S(N)(=O)=O)cc3)C2=O)cc1 (stereo not shown)	-24.6%
N=c1ncn(CC(O)CO)c2nc(N3CCOCC3)[nH]c12 (stereo not shown)	9.85%
Cc1nn(C)cc1CN(C)C(=O)c1cc2nc(-c3ccco3)cc(C(F)(F)F)n2n1	-21.9%
COc1ccc(CNC(=O)c2coc(=O)c3ccccc23)cc1	-27.3%
O=C1C=C(O)C(n2cncn2)C(c2ccc3c(c2)OCO3)C1 (stereo not shown)	17.1%
Cc1ccc(NC(=O)c2ccn(C(=O)Nc3ccccc3)n2)c(C)c1	2.97%
O=S(=O)(NCCCCCCNS(=O)(=O)c1c(F)cccc1F)c1ccc2c(c1)OCCO2	-7.13%
O=C(NCc1ccco1)c1cnc2n(c1=O)CCS2	-11.4%
Cc1nc2ccc(NC(=S)N3CCN(c4ccccn4)CC3)cc2nc1C	-13.5%
O=C(NC(=O)N1CCN(c2ccccc2F)CC1)c1ccccc1	-8.06%
OCC12COC(c3ccccc3)N1C(c1ccccc1)OC2 (stereo not shown)	18.2%
CN1CCN(c2ccc(N)cc2)CC1	2.07%
CCC1C(C#N)=C(SCC(N)=O)NC2=C1C(=O)CC(C)(C)C2 (stereo not shown)	1.07%
S=C(NCCCc1ccccc1)Nc1ccc(Cl)cc1	12.3%
Cc1cc(NC(=O)c2cccs2)no1	9.7%
COc1cc(/C=C2\SC(=S)N(NS(=O)(=O)c3ccc(C)cc3)C2=O)ccc1O	-18.5%
COc1ccc([C@H]2CC(=O)C=C(c3ccc(OC)nc3)C2)cc1	14.2%
CC1(c2nnc(Cc3ccccc3)o2)CC(c2ccc(OC(F)(F)F)cc2)=NO1 (stereo not shown)	-22.5%
COc1ccc(NC(=O)c2ccco2)c(NC(=O)c2ccc([N+](=O)[O-])cc2)c1	-13.1%
COc1ccc(C[C@H]2CN3C(=NC[C@H]3Cc3ccccc3)N2CCNC(=O)CCC2CCCCC2)cc1	-71.9%
CCOc1cccc(C(=O)NC(=S)Nc2ccc(Cl)cc2C(=O)O)c1	35.1%
COc1cccc(-c2cccc(NC(=O)C3CCN(Cc4ccon4)CC3)c2)c1	-27.8%

SMILES	hERG current change (%, negative = inhibition) at 10uM
CCOC(=O)c1sc(=S)n(-c2ccc(F)c(F)c2)c1N	10.7%
O=C(NCc1ccc2c(c1)OCO2)c1ccc(CSCc2ccc(Cl)cc2)o1	11%
CN(C)c1ccc(CN(C(=O)c2ccccc2Br)C2CCS(=O)(=O)C2)cc1 (stereo not shown)	8.81%
CC1=CC(c2ccccc2)n2nc(N3C(=O)CCC3=O)nc2N1.O=C(O)CCC(=O)O (stereo not shown)	2.59%
CC1CCCN(S(=O)(=O)c2ccccc2[N+](=O)[O-])C1 (stereo not shown)	7.35%
CCC(C)c1ccc(NC(=O)C2CC2)cc1 (stereo not shown)	5.22%
COc1ccc(CN(C)CC(=O)Nc2ccccc2C(F)(F)F)cc1	14.7%
COc1ccc(-c2ccc(Nc3ccc(S(=O)(=O)N4CCCC4)cc3)nn2)cc1OC	6.55%
O=C(NNS(=O)(=O)c1ccc(F)cc1)C1CCCCC1	18.4%
Cc1ccc(S(=O)(=O)N(CC(=O)NCCSCc2ccco2)c2ccc(F)cc2)cc1	-28.3%
CCOC(=O)CN(c1ccccc1)S(=O)(=O)c1ccc(F)cc1	1.93%
CC(=O)c1c(NC(=O)C(C)C)nc(C)nc1-c1ccccc1	5.43%
COc1ccc(CCNC(=S)Nc2cccc(C)c2C)cc1	-12.8%
COc1ccc(/C=C/c2nc(-c3ccccc3)cc(=O)[nH]2)cc1	-8.55%
O=c1[nH]c(SCc2ccccc2Cl)nc2[nH]ncc12	16%
COc1ccccc1NCC(O)COc1ccc(C(C)(C)C)cc1.O=C(O)C(=O)O (stereo not shown)	6.79%
Nc1nc(SCC(=O)N2CCc3ccccc3C2)[nH]c(=O)c1-c1ccccc1	-7.24%
CCOC(=O)C1CCN(C(=O)CCC(=O)NCCc2ccc(Cl)cc2)CC1	-8.97%
CCOC(=O)c1cc(-c2ccccc2)sc1NC(=O)C(C)(C)C	0.0757%
Cc1ccccc1N(C(=O)c1ccco1)C(C(=O)NC1CCCC1)c1cccnc1 (stereo not shown)	2.84%
CCCN(CC(=O)Nc1ccccc1OC)C(=O)C1=COCCO1	-0.283%
N#CCC(=O)N/N=C\c1cccc(OC/C=C/c2ccccc2)c1	12.5%
